The densities may have been worked out from excess volumes.
Experiment: xn = mol fraction of the nth substance listed
Conditions: 100 kPa

CCC(=O)[O-].C[n+]1ccn(CCO)c1 + O
mass density [kg/m3]
Conditions	288.15 K	293.15 K	298.15 K	303.15 K	308.15 K	313.15 K	318.15 K	323.15 K	328.15 K	333.15 K
x1 = 0.7595	1163	1160	–	1153	1150	1147	1144	1140	1137	1134
x1 = 0.8082	1164	1161	1158	1154	1151	1148	1145	–	–	1135
x1 = 0.842	1165	1162	–	1156	1152	1149	–	1143	1140	1136
x1 = 0.8991	1166	1163	1160	1157	–	1150	1147	–	1141	–
x1 = 0.9102	1167	1163	1160	1157	1154	1151	1148	1144	–	1138

CC(=O)[O-].Cn1cc[n+](CCO)c1 + O
mass density [kg/m3]
Conditions	288.15 K	293.15 K	298.15 K	303.15 K	308.15 K	313.15 K	318.15 K	323.15 K	328.15 K	333.15 K
x1 = 0.8317	1163.6	1160.5	–	–	–	1147.7	1144.5	1141.3	1138	1134.8
x1 = 0.8632	1167.5	1164.4	1161.2	1158	1154.8	–	1148.4	1145.1	1141.8	1138.5
x1 = 0.8712	1168.7	1165.5	–	–	1156	–	1149.6	1146.3	–	1139.8
x1 = 0.8818	1170.2	1167	1163.9	1160.7	–	–	1151.1	–	1144.6	–
x1 = 0.9003	1172.2	–	1166	1162.7	1159.5	1156.3	1153.1	1150	1146.6	–

Source: a compilation of properties of binary mixtures (doi:10.1016/j.jct.2022.106909)
